# Data published in the supplement of paper PMC7125110.
# ± gives the standard error. Variants at the background level are over-represented here.
# B1: glmS ribozyme (parent)
# chain: AUAAAAGCGCCAGAACUACAGAAAUGUAGUUGACGAGGAGGAGGUUUAUCGAAUUUUCGGCGGAUGCCUCCAAA
# Assays:
# Conditions in all cases: with glucosamine-6-phosphate
# glucosamine-6-phosphate [1] = variants of: B1; assay: self-cleavage kobs at 40 uM GlcN6P; higher = faster cleavage; RNA array
# How it was run: (§1)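 Tiles of sequenced MiSeq chips were imaged over ~14 h at 37 °C. On them, barcoded ribozyme variants had been transcribed in situ by E. coli RNA polymerase and were tracked via a hybridised Cy3 probe while glucosamine-6-phosphate (40 μM to 10 mM) in HEPES/KCl/Mg(OAc)2 buffer flowed in. Per-tile medians, normalised to baseline and to non-cleaving reference variants, were fit to one- or two-exponential decays for kobs, and weighted Michaelis–Menten fits gave kcat and KM.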
# glucosamine-6-phosphate [2] = variants of: B1; assay: self-cleavage kobs at 10000 uM GlcN6P; higher = faster cleavage; RNA array
# How it was run: as §1
# glucosamine-6-phosphate [3] = variants of: B1; assay: self-cleavage kobs at 640 uM GlcN6P; higher = faster cleavage; RNA array
# How it was run: as §1
# glucosamine-6-phosphate [4] = variants of: B1; assay: self-cleavage kobs at 160 uM GlcN6P; higher = faster cleavage; RNA array
# How it was run: as §1
# glucosamine-6-phosphate [5] = variants of: B1; assay: self-cleavage kobs at 2500 uM GlcN6P; higher = faster cleavage; RNA array
# How it was run: as §1
Variant,self-cleavage kobs at 40 uM GlcN6P (glucosamine-6-phosphate [1]),self-cleavage kobs at 10000 uM GlcN6P (glucosamine-6-phosphate [2]),self-cleavage kobs at 640 uM GlcN6P (glucosamine-6-phosphate [3]),self-cleavage kobs at 160 uM GlcN6P (glucosamine-6-phosphate [4]),self-cleavage kobs at 2500 uM GlcN6P (glucosamine-6-phosphate [5])
C11U A33U G43U A53C U54A,< 1e-05 s⁻¹,< 1e-05 s⁻¹,–,–,–
C11U A36G C50G,8.31e-05 ± 2.8e-05 s⁻¹,4.94e-05 ± 1.5e-05 s⁻¹,0.000352 ± 0.00014 s⁻¹,–,–
C11U A36G G38C U69C,< 1e-05 s⁻¹,–,–,–,–
C11U A42U C58G,< 1e-05 s⁻¹,–,–,–,–
C11U A48U U54A,< 1e-05 s⁻¹,–,< 1e-05 s⁻¹,< 1e-05 s⁻¹,–
C11U A52U,< 1e-05 s⁻¹,–,–,–,–
C11U A53C U56C C61U C70A,< 1e-05 s⁻¹,< 1e-05 s⁻¹,–,–,–
C11U C16U C71U,4.58e-05 ± 1.8e-05 s⁻¹,0.000614 ± 0.00012 s⁻¹,0.000215 ± 4.6e-05 s⁻¹,–,0.000443 ± 0.00011 s⁻¹
C11U G13A G38A G66C,< 1e-05 s⁻¹,–,–,–,–
C11U G13C C34A,< 1e-05 s⁻¹,< 1e-05 s⁻¹,–,–,–
C11U G29C C34A G37U,< 1e-05 s⁻¹,–,–,–,–
C11U G29C C34U U45A U69A,< 1e-05 s⁻¹,< 1e-05 s⁻¹,–,–,–
C11U G32C G35U G43A,< 1e-05 s⁻¹,< 1e-05 s⁻¹,–,–,–
C11U G35U G37C U57C,< 1e-05 s⁻¹,–,–,–,–
C11U G37C U65G,< 1e-05 s⁻¹,–,–,–,–
C11U G37U G43C,< 1e-05 s⁻¹,–,< 1e-05 s⁻¹,< 1e-05 s⁻¹,–
C11U G37U G43U G63U,< 1e-05 s⁻¹,–,–,–,–
C11U G40C U46G,< 1e-05 s⁻¹,–,–,–,–
C11U G41C U45G C58U,< 1e-05 s⁻¹,–,< 1e-05 s⁻¹,–,< 1e-05 s⁻¹
C11U G41U A42G,< 1e-05 s⁻¹,–,–,–,–
C11U G43C,< 1e-05 s⁻¹,–,< 1e-05 s⁻¹,< 1e-05 s⁻¹,< 1e-05 s⁻¹
C11U G43U,< 1e-05 s⁻¹,< 1e-05 s⁻¹,< 1e-05 s⁻¹,< 1e-05 s⁻¹,< 1e-05 s⁻¹
C11U U31C G38U G41U,< 1e-05 s⁻¹,< 1e-05 s⁻¹,–,–,–
C11U U45C G60C C61G,< 1e-05 s⁻¹,< 1e-05 s⁻¹,–,–,–
C11U U47G A48C,< 1e-05 s⁻¹,–,–,–,–
C11U U49A,< 1e-05 s⁻¹,< 1e-05 s⁻¹,< 1e-05 s⁻¹,–,< 1e-05 s⁻¹
C11U U49C G51U,< 1e-05 s⁻¹,–,–,–,–

Variant,self-cleavage kobs at 40 uM GlcN6P (glucosamine-6-phosphate [1]),self-cleavage kobs at 10000 uM GlcN6P (glucosamine-6-phosphate [2]),self-cleavage kobs at 640 uM GlcN6P (glucosamine-6-phosphate [3]),self-cleavage kobs at 160 uM GlcN6P (glucosamine-6-phosphate [4]),self-cleavage kobs at 2500 uM GlcN6P (glucosamine-6-phosphate [5])
A12C A15C A42U U57G C61G C71U,< 1e-05 s⁻¹,–,–,< 1e-05 s⁻¹,< 1e-05 s⁻¹
A12C A24U A52C C67A,< 1e-05 s⁻¹,–,–,–,–
A12C A39G C50U A53G,< 1e-05 s⁻¹,–,–,–,–
A12C A42G,0.00118 ± 0.00019 s⁻¹,–,–,0.00222 ± 0.00053 s⁻¹,–
A12C A42G C70A,< 1e-05 s⁻¹,2.91e-05 ± 1.2e-05 s⁻¹,–,–,–
A12C A42U A64G,< 1e-05 s⁻¹,–,< 1e-05 s⁻¹,–,–
A12C A42U C68A,< 1e-05 s⁻¹,< 1e-05 s⁻¹,–,–,< 1e-05 s⁻¹
A12C A48C,< 1e-05 s⁻¹,–,–,–,–
A12C A48U,< 1e-05 s⁻¹,–,–,–,–
A12C C61G,< 1e-05 s⁻¹,< 1e-05 s⁻¹,< 1e-05 s⁻¹,< 1e-05 s⁻¹,–
A12C C67A,0.000204 ± 1.9e-05 s⁻¹,0.00467 ± 0.00054 s⁻¹,0.00125 ± 0.0002 s⁻¹,0.000456 ± 7.2e-05 s⁻¹,0.0034 ± 0.00084 s⁻¹
A12C G13A U45A C68U,< 1e-05 s⁻¹,–,–,–,–
A12C G29C,6.03e-05 ± 6.2e-06 s⁻¹,0.00271 ± 0.00022 s⁻¹,0.000508 ± 5.3e-05 s⁻¹,0.000193 ± 2.7e-05 s⁻¹,0.00139 ± 0.00023 s⁻¹
A12C G32U G59C,< 1e-05 s⁻¹,< 1e-05 s⁻¹,< 1e-05 s⁻¹,< 1e-05 s⁻¹,< 1e-05 s⁻¹
A12C G35A,< 1e-05 s⁻¹,< 1e-05 s⁻¹,< 1e-05 s⁻¹,< 1e-05 s⁻¹,< 1e-05 s⁻¹
A12C G38C G44A A64G,< 1e-05 s⁻¹,–,–,–,–
A12C G40A,0.000112 ± 2.1e-05 s⁻¹,0.00569 ± 0.0013 s⁻¹,0.000633 ± 0.00023 s⁻¹,0.000305 ± 8e-05 s⁻¹,0.00149 ± 0.00055 s⁻¹
A12C G40U U47G U49G,< 1e-05 s⁻¹,< 1e-05 s⁻¹,–,–,< 1e-05 s⁻¹
A12C G41A,7.57e-05 ± 9.1e-06 s⁻¹,–,–,–,–
A12C G41U,5.28e-05 ± 7e-06 s⁻¹,0.00129 ± 0.00013 s⁻¹,0.00028 ± 6.1e-05 s⁻¹,7.73e-05 ± 8.9e-06 s⁻¹,0.00034 ± 6.3e-05 s⁻¹
A12C G51U,< 1e-05 s⁻¹,–,–,–,–
A12C G60U,< 1e-05 s⁻¹,–,< 1e-05 s⁻¹,< 1e-05 s⁻¹,–
A12C U30C C34G A42G,< 1e-05 s⁻¹,–,–,–,–
A12C U30C C71U,3.06e-05 ± 1.5e-05 s⁻¹,–,–,–,–
A12C U30C U45A G59A G60C,< 1e-05 s⁻¹,< 1e-05 s⁻¹,–,–,–
A12C U31A G38U U45G,< 1e-05 s⁻¹,< 1e-05 s⁻¹,–,–,–
